Read counts are not given, so values of variants with three or more changes are uncertain.
B1: LINE1-mini (parent)
chain: GGCAGAGCUCAACACAGCGUGGCAAAGUGGCUGUGGCUAGACUGCC

Variants of: B1
Assay: self-cleavage, relative activity (ratio to wild type); higher = more cleavage; in vitro, sequencing; the parent is a self-cleaving ribozyme

| Variant | self-cleavage |
| --- | --- |
| G5C U38A A41U C42G | 0.08 |
| G5U C18U G21A U43C | 0.04 |
| G5U A11C U20A | 0.01 |
| G5U C15A G19U G27C | 0.07 |
| G5C A14G A24C G27C C37G | 0.03 |
| G5U C10U A11C G40C | 0.03 |
| G5C C8A G44A | 0.05 |
| G5C C8A G44U | 0.22 |
| G5U C13U G19U | 0.04 |
| G5U A11G A14G G30U U32A G44C | 0 |
| G5U C15A G30U G33U U34G U38C C45U | 0.01 |
| G5U A24G C46A | 0 |
| G5C A16U C23G A41C | 0.02 |
| G5U C18G U34C | 0.03 |
| G5C U9C G35U | 0.03 |
| G5U A6G C10G A16G G40A | 0.01 |
| G5C A12U U34A A41C C42G | 0.02 |
| G5C C10A C18U U43C | 0.02 |
| G5C C10U G27A C42G U43C | 0 |
| G5C C8U A11C C23U | 0.07 |
| G5U C8G C18A G36A | 0.07 |

| Variant | self-cleavage |
| --- | --- |
| G5U G7C C13U C15U A25G U28A | 0.1 |
| G5C A14U G35C G36U | 0.07 |
| G5U C15A C31A | 0.04 |
| G5U C10U A26G G29U G35U | 0.04 |
| G5U C8U U9A G22C A41U | 0.15 |
| G5C G44U C46G | 0.19 |
| G5C C18U C46A | 0.04 |
| G5U C15U U28A G29U G40U | 0.03 |
| G5U C13U G22U | 0.21 |
| G5U A24C A26G G33C G36U C45A | 0.01 |
| G5C A24C A25U G40C | 0.01 |
| G5C G27C G35C | 0.07 |
| G5C A14C G21C | 0.03 |
| G5C U9A G44U | 0.02 |
| G5C C8A C10U G21A G36U | 0.09 |
| G5C U20G G29A G40C | 0.01 |
| G5C A39G C46U | 0.03 |
| G5U A16G G22U | 0.03 |
| G5U C8G C13A G22U C45U | 0.13 |
| G5C G17A C31U | 0.02 |
| G5U G7A C46A | 0.12 |

| Variant | self-cleavage |
| --- | --- |
| G5U G7C C15A G21U | 0.07 |
| G5U C8U G22U G36U | 0.54 |
| G5C C18G G40A | 0.12 |
| G5U C8U U9G | 0.21 |
| G5U C10A C37A | 0.01 |
| G5C C13G A25C C37G C45U | 0.05 |
| G5U C23A C37A G40A | 0.01 |
| G5C C15G G17U G29U G30C A39U | 0.02 |
| G5C A26G G30U C37A | 0.04 |
| G5U C15A A16U G19C G21C C23U A24C C37U | 0.03 |
| G5C G7A G17A C23A A39G | 0.05 |
| G5C C8U A16G G30U U34C | 0.04 |
| G5C C31U G33A C45U | 0.05 |
| G5U C31U U34A U43C | 0.02 |
| G5C U38C C45G | 0.03 |
| G5C G7U A11C G27U G30U | 0.02 |
| G5C C8G A11U G35C | 0.03 |
| G5U A16C G22A G27A | 0.04 |
| G5C C10A A12U G33C G36C | 0 |
| G5C G19U G44U | 0.01 |
| G5C C10A U28C C42U | 0.02 |

| Variant | self-cleavage |
| --- | --- |
| G5C C15U A24G A41G C42G G44U C45U | 0.01 |
| G5U C15U C31G C37U | 0.04 |
| G5U A11C G33A | 0.01 |
| G5C G7A C8G | 0.05 |
| G5U G7C C13A C46A | 0 |
| G5C G21U A26U U38C | 0.02 |
| G5C A16G G27A G36A | 0.01 |
| G5U A6U U9A U20C U32C | 0.08 |
| G5C C8G A11C G27A | 0.02 |
| G5U A14G G17U G22A | 0.11 |
| G5U A41G C42U C46G | 0.05 |
| G5U C23U G27U A39G | 0 |
| G5C C8G C37G C42A | 0.11 |
| G5U C8U C31G U32A | 0.06 |
| G5C U9C U34A | 0.07 |
| G5C C10U A11U A25C G35U C42G | 0.01 |
| G5C A14U G36U | 0.05 |
| G5U C10A U38A | 0.12 |
| G5U A16C U38C | 0.03 |
| G5C G7A A14C U34A | 0.1 |

Reference: the RNAGym collection of RNA variant scans (doi:10.7554/elife.90254)
